Assay results reported in the supplement of paper PMC10886265.

How the values were obtained:
Test in all cases: Broth microdilution (CLSI), cation-adjusted Mueller-Hinton broth, two-fold steps from 0.25 to 128 µg/mL, 18 h at 37 °C.
Meropenem = compound: C[C@@H](O)[C@H]1C(=O)N2C(C(=O)O)=C(S[C@@H]3CN[C@H](C(=O)N(C)C)C3)[C@H](C)[C@H]12 [Meropenem]
Ertapenem = compound: C[C@@H](O)[C@H]1C(=O)N2C(C(=O)O)=C(S[C@@H]3CN[C@H](C(=O)Nc4cccc(C(=O)O)c4)C3)[C@H](C)[C@H]12 [Ertapenem]
Imipenem = compound: C[C@@H](O)[C@H]1C(=O)N2C(C(=O)O)=C(SCCNC=N)C[C@H]12 [Imipenem]

Test System: Klebsiella oxytoca isolate secondary sludge #196 (carbapenemase genes (PCR): KPC)
- MIC (Meropenem): 32 µg/mL
- MIC (Ertapenem): 8 µg/mL
- MIC (Imipenem): 8 µg/mL

Test System: Klebsiella variicola isolate primary sludge #44 (carbapenemase genes (PCR): GES)
- MIC (Meropenem): 32 µg/mL
- MIC (Ertapenem): 16 µg/mL
- MIC (Imipenem): 64 µg/mL

Test System: Enterobacter bugandensis isolate primary sludge #24 (carbapenemase genes (PCR): KPC)
- MIC (Meropenem): 64 µg/mL
- MIC (Ertapenem): 64 µg/mL
- MIC (Imipenem): 128 µg/mL

Test System: Klebsiella oxytoca isolate secondary sludge #197 (carbapenemase genes (PCR): KPC)
- MIC (Meropenem): 64 µg/mL
- MIC (Ertapenem): 8 µg/mL
- MIC (Imipenem): 16 µg/mL

Test System: Escherichia coli isolate primary sludge #171 (carbapenemase genes (PCR): KPC)
- MIC (Meropenem): 64 µg/mL
- MIC (Ertapenem): 8 µg/mL
- MIC (Imipenem): 64 µg/mL

Test System: Klebsiella oxytoca isolate secondary sludge #195 (carbapenemase genes (PCR): KPC)
- MIC (Meropenem): 32 µg/mL
- MIC (Ertapenem): 8 µg/mL
- MIC (Imipenem): 8 µg/mL

Test System: Enterobacter cloacae isolate secondary sludge #34 (carbapenemase genes (PCR): KPC)
- MIC (Meropenem): 128 µg/mL
- MIC (Ertapenem): 64 µg/mL
- MIC (Imipenem): 64 µg/mL

Test System: Klebsiella pneumoniae isolate primary sludge #251 (carbapenemase genes (PCR): KPC)
- MIC (Meropenem): 64 µg/mL
- MIC (Ertapenem): 32 µg/mL
- MIC (Imipenem): 64 µg/mL

Test System: Enterobacter kobei isolate sewage #18 (carbapenemase genes (PCR): ND)
- MIC (Meropenem): 64 µg/mL
- MIC (Ertapenem): 8 µg/mL
- MIC (Imipenem): 16 µg/mL

Test System: Klebsiella pneumoniae isolate secondary sludge #191 (carbapenemase genes (PCR): KPC)
- MIC (Meropenem): 64 µg/mL
- MIC (Ertapenem): 8 µg/mL
- MIC (Imipenem): 32 µg/mL

Test System: Klebsiella oxytoca isolate primary sludge #225 (carbapenemase genes (PCR): KPC)
- MIC (Meropenem): 64 µg/mL
- MIC (Ertapenem): 32 µg/mL
- MIC (Imipenem): 16 µg/mL

Test System: Klebsiella oxytoca isolate primary sludge #216 (carbapenemase genes (PCR): KPC)
- MIC (Meropenem): 64 µg/mL
- MIC (Ertapenem): 32 µg/mL
- MIC (Imipenem): 64 µg/mL

Test System: Aeromonas hydrophila isolate sewage #6 (carbapenemase genes (PCR): KPC)
- MIC (Meropenem): 16 µg/mL
- MIC (Ertapenem): 4 µg/mL
- MIC (Imipenem): 16 µg/mL

Test System: Pseudomonas aeruginosa isolate secondary sludge #86 (carbapenemase genes (PCR): VIM)
- MIC (Meropenem): 128 µg/mL
- MIC (Ertapenem): 32 µg/mL
- MIC (Imipenem): 64 µg/mL

Test System: Enterobacter kobei isolate sewage #12 (carbapenemase genes (PCR): IMP)
- MIC (Meropenem): 32 µg/mL
- MIC (Ertapenem): 4 µg/mL
- MIC (Imipenem): 16 µg/mL

Test System: Klebsiella variicola isolate primary sludge #2 (carbapenemase genes (PCR): OXA-48)
- MIC (Meropenem): 32 µg/mL
- MIC (Ertapenem): 32 µg/mL
- MIC (Imipenem): 64 µg/mL

Test System: Pseudomonas aeruginosa isolate sewage #221 (carbapenemase genes (PCR): VIM)
- MIC (Meropenem): 64 µg/mL
- MIC (Ertapenem): 8 µg/mL
- MIC (Imipenem): 32 µg/mL

Test System: Klebsiella oxytoca isolate secondary sludge #186 (carbapenemase genes (PCR): KPC)
- MIC (Meropenem): 32 µg/mL
- MIC (Ertapenem): 8 µg/mL
- MIC (Imipenem): 16 µg/mL

Test System: Enterobacter bugandensis isolate sewage #34 (carbapenemase genes (PCR): KPC)
- MIC (Meropenem): 8 µg/mL
- MIC (Ertapenem): 4 µg/mL
- MIC (Imipenem): 4 µg/mL

Test System: Pseudomonas putida isolate sewage #72 (carbapenemase genes (PCR): IMP)
- MIC (Meropenem): 128 µg/mL
- MIC (Ertapenem): 64 µg/mL
- MIC (Imipenem): 64 µg/mL

Test System: Klebsiella oxytoca isolate primary sludge #170 (carbapenemase genes (PCR): KPC)
- MIC (Meropenem): 64 µg/mL
- MIC (Ertapenem): 8 µg/mL
- MIC (Imipenem): 64 µg/mL

Test System: Kluyvera georgiana isolate secondary sludge #54 (carbapenemase genes (PCR): KPC)
- MIC (Meropenem): > 128 µg/mL
- MIC (Ertapenem): 64 µg/mL
- MIC (Imipenem): 128 µg/mL

Test System: Klebsiella pneumoniae isolate primary sludge #62 (carbapenemase genes (PCR): KPC)
- MIC (Meropenem): 128 µg/mL
- MIC (Ertapenem): 64 µg/mL
- MIC (Imipenem): 64 µg/mL

Test System: Citrobacter freundii isolate primary sludge #179 (carbapenemase genes (PCR): OXA-48)
- MIC (Meropenem): 128 µg/mL
- MIC (Ertapenem): 32 µg/mL
- MIC (Imipenem): 64 µg/mL

Test System: Klebsiella pneumoniae isolate secondary sludge #84 (carbapenemase genes (PCR): OXA-48+KPC)
- MIC (Meropenem): 128 µg/mL
- MIC (Ertapenem): 32 µg/mL
- MIC (Imipenem): 64 µg/mL

Test System: Stenotrophomonas maltophilia isolate primary sludge #37 (carbapenemase genes (PCR): KPC)
- MIC (Meropenem): 128 µg/mL
- MIC (Ertapenem): 64 µg/mL
- MIC (Imipenem): 128 µg/mL

Test System: Klebsiella variicola isolate primary sludge #86 (carbapenemase genes (PCR): GES)
- MIC (Meropenem): 64 µg/mL
- MIC (Ertapenem): 32 µg/mL
- MIC (Imipenem): 64 µg/mL

Test System: Enterobacter cloacae isolate sewage #227 (carbapenemase genes (PCR): KPC)
- MIC (Meropenem): 32 µg/mL
- MIC (Ertapenem): 4 µg/mL
- MIC (Imipenem): 8 µg/mL

Test System: Klebsiella oxytoca isolate primary sludge #223 (carbapenemase genes (PCR): KPC)
- MIC (Meropenem): 128 µg/mL
- MIC (Ertapenem): 32 µg/mL
- MIC (Imipenem): 64 µg/mL

Test System: Enterobacter bugandensis isolate sewage #86 (carbapenemase genes (PCR): KPC)
- MIC (Meropenem): 64 µg/mL
- MIC (Ertapenem): 64 µg/mL
- MIC (Imipenem): 64 µg/mL

Test System: Klebsiella oxytoca isolate primary sludge #191 (carbapenemase genes (PCR): KPC)
- MIC (Meropenem): 64 µg/mL
- MIC (Ertapenem): 32 µg/mL
- MIC (Imipenem): 16 µg/mL

Test System: Citrobacter freundii isolate primary sludge #195 (carbapenemase genes (PCR): KPC)
- MIC (Meropenem): 64 µg/mL
- MIC (Ertapenem): 4 µg/mL
- MIC (Imipenem): 16 µg/mL

Test System: Pseudomonas aeruginosa isolate primary sludge #255 (carbapenemase genes (PCR): VIM)
- MIC (Meropenem): 64 µg/mL
- MIC (Ertapenem): 8 µg/mL
- MIC (Imipenem): 32 µg/mL

Test System: Citrobacter freundii isolate primary sludge #178 (carbapenemase genes (PCR): OXA-48)
- MIC (Meropenem): 128 µg/mL
- MIC (Ertapenem): 32 µg/mL
- MIC (Imipenem): 64 µg/mL

Test System: Enterobacter bugandensis isolate sewage #31 (carbapenemase genes (PCR): KPC)
- MIC (Meropenem): 128 µg/mL
- MIC (Ertapenem): 64 µg/mL
- MIC (Imipenem): 128 µg/mL

Test System: Klebsiella variicola isolate sewage #100 (carbapenemase genes (PCR): OXA-48)
- MIC (Meropenem): 32 µg/mL
- MIC (Ertapenem): 16 µg/mL
- MIC (Imipenem): 64 µg/mL

Test System: Klebsiella variicola isolate secondary sludge #214 (carbapenemase genes (PCR): GES)
- MIC (Meropenem): 32 µg/mL
- MIC (Ertapenem): 4 µg/mL
- MIC (Imipenem): 16 µg/mL

Test System: Pseudomonas aeruginosa isolate secondary sludge #210 (carbapenemase genes (PCR): VIM)
- MIC (Meropenem): 64 µg/mL
- MIC (Ertapenem): 8 µg/mL
- MIC (Imipenem): 32 µg/mL

Test System: Pseudomonas aeruginosa isolate secondary sludge #79 (carbapenemase genes (PCR): VIM)
- MIC (Meropenem): 128 µg/mL
- MIC (Ertapenem): 32 µg/mL
- MIC (Imipenem): 64 µg/mL

Test System: Klebsiella variicola isolate primary sludge #73 (carbapenemase genes (PCR): GES)
- MIC (Meropenem): 64 µg/mL
- MIC (Ertapenem): 16 µg/mL
- MIC (Imipenem): 64 µg/mL

Test System: Pseudomonas aeruginosa isolate secondary sludge #211 (carbapenemase genes (PCR): VIM)
- MIC (Meropenem): 64 µg/mL
- MIC (Ertapenem): 8 µg/mL
- MIC (Imipenem): 32 µg/mL

Test System: Enterobacter asburiae isolate sewage #28 (carbapenemase genes (PCR): KPC)
- MIC (Meropenem): 128 µg/mL
- MIC (Ertapenem): 64 µg/mL
- MIC (Imipenem): 128 µg/mL

Test System: Enterobacter bugandensis isolate sewage #24 (carbapenemase genes (PCR): KPC)
- MIC (Meropenem): 128 µg/mL
- MIC (Ertapenem): 64 µg/mL
- MIC (Imipenem): 128 µg/mL

Test System: Enterobacter cloacae isolate primary sludge #232 (carbapenemase genes (PCR): IMP+GES)
- MIC (Meropenem): 64 µg/mL
- MIC (Ertapenem): 8 µg/mL
- MIC (Imipenem): 16 µg/mL

Test System: Enterobacter cloacae isolate primary sludge #69 (carbapenemase genes (PCR): KPC)
- MIC (Meropenem): 64 µg/mL
- MIC (Ertapenem): 16 µg/mL
- MIC (Imipenem): 16 µg/mL

Test System: Kluyvera ascorbata isolate sewage #104 (carbapenemase genes (PCR): KPC)
- MIC (Meropenem): 64 µg/mL
- MIC (Ertapenem): 32 µg/mL
- MIC (Imipenem): 128 µg/mL

Test System: Kluyvera cryocrescens isolate primary sludge #31 (carbapenemase genes (PCR): KPC)
- MIC (Meropenem): 128 µg/mL
- MIC (Ertapenem): 64 µg/mL
- MIC (Imipenem): 128 µg/mL

Test System: Enterobacter bugandensis isolate sewage #33 (carbapenemase genes (PCR): KPC)
- MIC (Meropenem): 128 µg/mL
- MIC (Ertapenem): 64 µg/mL
- MIC (Imipenem): 128 µg/mL

Test System: Escherichia coli isolate secondary sludge #174 (carbapenemase genes (PCR): KPC)
- MIC (Meropenem): 64 µg/mL
- MIC (Ertapenem): 8 µg/mL
- MIC (Imipenem): 16 µg/mL

Test System: Pseudomonas aeruginosa isolate primary sludge #258 (carbapenemase genes (PCR): VIM)
- MIC (Meropenem): 64 µg/mL
- MIC (Ertapenem): 8 µg/mL
- MIC (Imipenem): 32 µg/mL

MIC by broth microdilution (CLSI, 0.25-128 µg/mL, 18 h, 37 °C) of Gram-negative wastewater isolates picked on carbapenem-selective plates; higher = less susceptible. No active / inactive call. Isolates were selected for resistance.
